Test results: patent US11344574B2, “Fluoro substituted porphyrin compounds, pharmaceutical compositions comprising the same, and methods of preparing and using the same” (Duke University, priority 2017, dated 2022)

Assays:
[1] = Metal-centered reduction potential for the Mn^IIIP/Mn^IIP redox couple; type: physicochemical; details: vs normal hydrogen electrode
[2] = SOD mimicking: catalysis of O2.^− dismutation; type: biochemical; details: for log kcat (O2−^•): ability to mimic SOD enzyme in catalysis of O2.^− dismutation
[3] = Ability of MnP to catalyze ascorbate oxidation, initial rates assessed spectrally; details: for v0(Asc oxid): initial rate of ascorbate oxidation, 10 μM MnP, 1 mM Asc, aerobic, 25 °C, pH 7.8
Mouse toxicity = type: in vivo; details: Mn3 vs Mn2, FIG. 4 panel A
[4] = Blood pressure drop (hypotension) after iv MnP; details: Mn3 vs Mn2, FIG. 4 panel D
prostate tissue = assay: Radioprotection of prostate tissue, histopathology (H&E); details: in the presence of Mn4 and RT, ascorbate 1 g/kg
Experimental: Tissue was stained with H&E.
Mn4 administration started at 24 hours before RT. Mn4 was given at 0.5 mg/kg sc for the first 4 weeks daily except for weekends, and then twice weekly for the next 5 weeks. Single 20 Gy RT dose was given.
The tissues were preserved, half of them in formalin and another half snap-frozen for different analyses. Prostate is the only tissue directly radiated and the penile function was known to suffer radiation damage.

Molecule | E1/2, mV vs NHE [1] | log kcat (O2−^•) [2] | v0(Asc oxid) [3] | redox activity with regards to SOD mimicking (in words) ([2]; vs Mn2, FIG. 4 panel B) | lower mouse toxicity (Mouse toxicity) | lower hypotension [4] | catalysis of ascorbate oxidation (in words) ([3]; compared with non-fluorinated MnP) | toxicity of ascorbate addition to prostate tissue (prostate tissue)
CC[n+]1ccccc1-c1c2nc(c(-c3cccc[n+]3CC)c3ccc([n-]3)c(-c3cccc[n+]3CC)c3nc(c(-c4cccc[n+]4CC)c4ccc1[n-]4)C=C3)C=C2.[Mn+3] [Mn1, MnTE-2-PyP^5+, reference compound] | +228 mV | 7.76 | 321 nM/s | – | – | – | – | –
FCC[n+]1ccccc1C1=C2C=CC3=[N+]2[Mn]24[n]5c1ccc5C(c1cccc[n+]1CCF)=C1C=CC(=[N+]12)C(c1cccc[n+]1CCF)=c1ccc([n]14)=C3c1cccc[n+]1CCF [Mn3, Mn(III) 5,10,15,20-tetra(2-fluoroethylpyridinium-2-yl)porphinato pentachloride] | +242 mV | 7.91 | 543 nM/s | largely improved redox activity with regards to SOD mimicking | ~10 fold | > 10 fold | increased catalytic potency with regards to Asc oxidation | –
O=C1O[C@H]([C@@H](O)CO)C(O)=C1O [ascorbate, reference compound] | – | – | – | – | – | – | – | not toxic to prostate tissue
Mn(III) ortho N-butoxyethylpyridylporphyrin [Mn2, reference compound] | +277 mV | 7.83 | 296 nM/s | – | – | – | – | –
MnTnPen-2-PyP^5+ [reference compound] | +278 mV | 7.36 | 164 nM/s | – | – | – | – | –
